The source of these data is article PMC12820563, “FoxP3 forms a head-to-head dimer in vivo and stabilizes its multimerization on adjacent microsatellites”.

This is one part of the list.

The target of this assay is T1, MBP-FoxP1dN (Mus musculus, UniProt P58462 326-579).
T1 sequence: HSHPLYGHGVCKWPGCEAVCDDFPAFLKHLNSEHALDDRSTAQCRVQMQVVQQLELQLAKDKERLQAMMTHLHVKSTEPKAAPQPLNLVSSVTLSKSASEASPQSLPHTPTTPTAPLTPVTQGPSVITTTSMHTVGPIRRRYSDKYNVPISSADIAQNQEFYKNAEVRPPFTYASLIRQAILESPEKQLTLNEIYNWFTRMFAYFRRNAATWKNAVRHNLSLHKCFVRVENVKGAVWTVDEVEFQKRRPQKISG
As to the kind of experiment: PD-seq (MBP pull-down with sequencing); 20 mM Tris-HCl pH 7.5, 100 mM NaCl, 1.5 mM MgCl2, 0.4 uM protein, 0.1 uM dsDNA library, 30 min, room temperature, amylose pull-down; high values mean tight binding. To be noted: protein: recombinant; tags: His6-MBP; chain copies: 2; dsDNA, one strand shown. Summed up:
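The N-terminus-lacking fragment of mouse FoxP3 or FoxP1 carried a His6-MBP tag and was expressed in E. coli. At 0.4 µM it was incubated with 0.1 µM Klenow-filled degenerate double-stranded DNA library for 30 min at room temperature in Tris pH 7.5 buffer with NaCl and MgCl2, and complexes were caught on amylose resin, washed three times, released with proteinase K, PCR-barcoded and Illumina-sequenced. Binding is reads-per-million enrichment of pull-down over input with replicates pooled.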
Take “GATGATTGTTCTCCCAGCTGATGAATTATAGACTTCGAGTAAACAAATTTTCCTAATCTTTCTGTTCAAGCGCCATCTAC”: the binding signal was 0.9 RPM ratio (pull-down/input).
“GATGATTGTTCTCCCAGCTGATGAATTTCCAGGCTCGAGTAAACAAATTTTCCTAATCTTTCTGTTCAAGCGCCATCTAC”: the binding signal is 0.756 RPM ratio (pull-down/input).
The same measure for “GATGATTGTTCTCCCAGCTGATGAATTCGAGCGATCGAGTAAACAAATTTTCCTAATCTTTCTGTTCAAGCGCCATCTAC”: 0.833 RPM ratio (pull-down/input); for “GATGATTGTTCTCCCAGCTGATGAATTCACCCCGTCGAGTAAACAAATTTTCCTAATCTTTCTGTTCAAGCGCCATCTAC”: 0.853 RPM ratio (pull-down/input).
The same measure for “GATGATTGTTCTCCCAGCTGATGAATTTGTGTCTTCGAGTAAACAAATTTTCCTAATCTTTCTGTTCAAGCGCCATCTAC”: 1.32 RPM ratio (pull-down/input); for “GATGATTGTTCTCCCAGCTGATGAATTGAGTCCCTCGAGTAAACAAATTTTCCTAATCTTTCTGTTCAAGCGCCATCTAC”: 0.781 RPM ratio (pull-down/input).
With “GATGATTGTTCTCCCAGCTGATGAATTCCGGAGCTCGAGTAAACAAATTTTCCTAATCTTTCTGTTCAAGCGCCATCTAC” the figure was 0.72 RPM ratio (pull-down/input); with “GATGATTGTTCTCCCAGCTGATGAATTCACGCAATCGAGTAAACAAATTTTCCTAATCTTTCTGTTCAAGCGCCATCTAC”, 1.32 RPM ratio (pull-down/input); with “GATGATTGTTCTCCCAGCTGATGAATTAGAGGGTTCGAGTAAACAAATTTTCCTAATCTTTCTGTTCAAGCGCCATCTAC”, 0.864 RPM ratio (pull-down/input).
Regarding “GATGATTGTTCTCCCAGCTGATGAATTACAATACTCGAGTAAACAAATTTTCCTAATCTTTCTGTTCAAGCGCCATCTAC”, the binding signal was 1.27 RPM ratio (pull-down/input).
The same measure for “GATGATTGTTCTCCCAGCTGATGAATTATTACGCTCGAGTAAACAAATTTTCCTAATCTTTCTGTTCAAGCGCCATCTAC”: 1.05 RPM ratio (pull-down/input); for “GATGATTGTTCTCCCAGCTGATGAATTGGGAAGTTCGAGTAAACAAATTTTCCTAATCTTTCTGTTCAAGCGCCATCTAC”: 0.835 RPM ratio (pull-down/input).
The same measure for “GATGATTGTTCTCCCAGCTGATGAATTACAGTACTCGAGTAAACAAATTTTCCTAATCTTTCTGTTCAAGCGCCATCTAC”: 1.06 RPM ratio (pull-down/input).
Consider “GATGATTGTTCTCCCAGCTGATGAATTTCCTGGGTCGAGTAAACAAATTTTCCTAATCTTTCTGTTCAAGCGCCATCTAC”, for which the binding signal was 0.797 RPM ratio (pull-down/input).
The same measure for “GATGATTGTTCTCCCAGCTGATGAATTTCGGCGATCGAGTAAACAAATTTTCCTAATCTTTCTGTTCAAGCGCCATCTAC”: 0.817 RPM ratio (pull-down/input); for “GATGATTGTTCTCCCAGCTGATGAATTCCTGCCATCGAGTAAACAAATTTTCCTAATCTTTCTGTTCAAGCGCCATCTAC”: 0.86 RPM ratio (pull-down/input).
With “GATGATTGTTCTCCCAGCTGATGAATTAACGGCCTCGAGTAAACAAATTTTCCTAATCTTTCTGTTCAAGCGCCATCTAC” the figure was 0.898 RPM ratio (pull-down/input); with “GATGATTGTTCTCCCAGCTGATGAATTACGCGTTTCGAGTAAACAAATTTTCCTAATCTTTCTGTTCAAGCGCCATCTAC”, 1.09 RPM ratio (pull-down/input).
